85 compounds from ChEMBL document CHEMBL1201862, “PubChem BioAssay data set” (2004) can be followed below.

Each structure is given as a SMILES string.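 In this assay, cells in 96-well plates receive the compound at five concentrations for 48 hours. Endpoints are linearly interpolated between the surrounding concentrations. GI50 = concentration required for 50% inhibition of growth.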 Active and inactive are the calls of the source. Cut-off read from the data, not from the text of the source: active = GI50 up to about 1.1 µM and inactive = higher.

For the test, the system named is NCI-H322M. The test is described as follows: NCI tumour cell line growth inhibition, 48 h.
In the case of `Cc1nc2cc3nc4ccccc4c(O)c3cc2s1`, the GI50 is inactive: > 100 µM.
In the case of `O=c1[nH]c2c(S)nc(O)nc2n1-c1ccccc1` it was inactive: > 100 µM; in that of `NS(=O)(=O)c1ccc(N=C2C(=O)Nc3ccccc32)cc1`, inactive: > 100 µM.
Then `CN(Cc1ccccc1)Cn1ccnc1`, with inactive: > 100 µM.
Then `O=C1CC(CC(=O)C2CCCCC2=O)C(=O)N1` (stereo not given), with inactive: > 100 µM.
Consider `N#CC(NCCO)=C1C(=O)c2ccccc2C1=O`, for which the GI50 was inactive: > 100 µM.
Then `Cn1c(=O)c2c(ncn2CN2CCN(Cn3cnc4c3c(=O)n(C)c(=O)n4C)CC2)n(C)c1=O`, with inactive: 68.5 µM.
For `CCSc1nc(N2CCOCC2)c2cn[nH]c2n1`, the GI50 is inactive: > 100 µM.
Then `COC(=O)C1=C(C(=O)OC)N(C(C)C)[C@H]2C(C(=O)OC)=C(C(=O)OC)N(C(C)C)[C@@H]12`, with inactive: > 100 µM; and `O=C1CN(c2ccccc2)C(=O)CN1CCN1CC(=O)N(c2ccccc2)CC1=O`, with inactive: > 100 µM.
For `Cn1c(=O)n2c(=O)n(C)c(=O)n2c1=O`, the GI50 is inactive: > 100 µM.
With `COc1ccc2c(c1)[n+]([O-])c1cc(C#N)ccc1[n+]2[O-]`, the GI50 was active: 0.212 µM.
In the case of `O=C(c1cccc(C(=O)c2ccc3c4c(cccc24)C(=O)N(c2ccccc2)C3=O)c1)c1ccc2c3c(cccc13)C(=O)N(c1ccccc1)C2=O` it was inactive: > 100 µM.
On to `S=C1SCN(Cc2ccco2)CN1c1ccc(Br)cc1`, for which the GI50 is inactive: 18.5 µM.
In the case of `Cc1ccc(S(=O)(=O)N/N=C(\c2nc3ccc(Cl)cc3[nH]c2=O)C(O)c2ccco2)cc1` (stereo not given), the GI50 is inactive: > 100 µM.
Then `CCOc1ccc(-n2c(=O)n3c(Nc4ccc(Cl)cc4)nc4c(c(=O)n(C)c(=O)n4C)n3c2=O)cc1`, with inactive: 34.8 µM.
Consider `O=C(Cc1nccc2c1[nH]c1ccccc12)OC1C#CCSCC#C/C=C\1` (stereo not given), for which the GI50 was inactive: > 100 µM.
Then `COc1cccc2c1CCc1ccccc1CC2=O`, with inactive: > 100 µM; and `Cc1cccc2c1Oc1ncccc1C2NC(=O)CN(C)C` (stereo not given), with inactive: > 10 µM; and `O/N=C1/Nc2cc(Cl)ccc2C(=S)N2CSCC12` (stereo not given), with inactive: > 100 µM.
In the case of `CC(C)[C@H](COC(C)(C)C)/N=C/N1CSc2ccccc21` it was inactive: 24.7 µM.
As to `CC(C)=CC(C(O)c1ccccc1)S(=O)(=O)c1nccn1C` (stereo not given), the GI50 was inactive: > 100 µM.
In the case of `CCOC(=O)C1C(=O)C(=O)N2CCc3c([nH]c4ccccc34)C12` (stereo not given) it was inactive: > 100 µM.
Regarding `Cc1ccc(NC(=O)/C(=N\NC(N)=S)C(C#N)c2ccccc2C)cc1C` (stereo not given), the GI50 was inactive: > 100 µM.
Consider `COC1(C)OC[C@@]2(C)OC(C)C1(C)C2O[Si](C(C)C)(C(C)C)C(C)C` (stereo not given in full), for which the GI50 is inactive: 37.1 µM.
Then `COc1cccc(NC(=O)C(=O)C(C(C)=O)c2nc3ccc(Cl)cc3nc2O)c1` (stereo not given), with inactive: > 100 µM.
For the compound `CSc1c(C)[n+]([O-])c2cc(Cl)c(Cl)cc2[n+]1[O-]`, the GI50 is inactive: 25.5 µM.
Then `O=C(O)COc1ccc(C(=O)/C(SS/C(C(=O)c2ccc(OCC(=O)O)c(Cl)c2Cl)=C2\C=C(c3ccc(F)cc3)SS2)=C2/C=C(c3ccc(F)cc3)SS2)c(Cl)c1Cl`, with inactive: 39.7 µM; and `OC(CCN1CCN(CCOC(c2ccccc2)c2ccccc2)CC1)c1ccc(Br)cc1` (stereo not given), with inactive: 14.2 µM.
Then `O[C@H]1[C@H](O)[C@@H](O)[C@@]2(O)C[C@@H](O)[C@@H]1N2`, with inactive: > 100 µM; and `CN(c1ccccc1)C1C(=O)N(c2ccccc2)C1/C=C/c1ccccc1` (stereo not given), with inactive: > 100 µM; and `COC(=O)c1cc(C)ccc1/C=C1\Cc2cccc(C)c2C1=O`, with inactive: > 100 µM.
On to `NC(=O)c1ccc(NCC2=CC(=O)C=CC2=O)cc1`, for which the GI50 was inactive: > 100 µM.
Then `COC(=O)c1sc2c(Cl)c(Cl)sc2c1Cl`, with inactive: > 100 µM.
In the case of `C[C@@]1(CBr)C[C@@](C)(/C=C/Cl)[C@@H](Cl)C[C@H]1Cl` it was inactive: 14.4 µM; in that of `O=C(Nc1ccccc1)c1cc2ccccc2c(/N=N/c2ccc([N+](=O)[O-])cc2)c1O`, inactive: > 100 µM.
In the case of `N#Cc1nc(C#N)c(N)[nH]1` it was inactive: > 100 µM; in that of `O=C(O)C1OC(n2cc(F)c(=O)[nH]c2=O)CC1O` (stereo not given), inactive: > 51.1 µM; in that of `CCC(C)N1CN(c2ccccc2)C2(CCN(CCCC(=O)c3ccc(F)cc3)CC2)C1=O` (stereo not given), inactive: 4.27 µM.
With `N#CC(C#N)=C1CCCCc2ccc([N+](=O)[O-])cc21`, the GI50 was inactive: > 100 µM.
In the case of `NC(=O)c1cccc(/N=c2\oc3ccc(Br)cc3cc2-c2nc3ccccc3[nH]2)c1` it was inactive: 15.4 µM.
Consider `CC(C)C(Nc1c2ccccc2nc2ccccc12)C(=O)O` (stereo not given), for which the GI50 is inactive: > 100 µM.
Consider `O=[N+]([O-])c1ccc(/C=C/c2csnn2)cc1`, for which the GI50 is inactive: > 100 µM.
As for `COC1(OC)CCCCCCCCC(OC)(OC)CCCCCCCC1`, the GI50 was inactive: > 100 µM.
In the case of `CCOC(=O)c1sc2[n+](c1C)C(=O)/C(=C/c1ccc([N+](=O)[O-])cc1)S2` it was inactive: 38.8 µM; in that of `COP(=O)(OC)[C@H](O)[C@H]1C[C@@H]1c1ccccc1`, inactive: > 100 µM.
Consider `CN(C)c1ncc(-c2c[nH]c3ccccc23)nc1-c1c[nH]c2ccccc12`, for which the GI50 was inactive: 3.84 µM.
For the compound `COc1ccc(Br)c(C(=O)N2CCc3ccccc32)c1N`, the GI50 was inactive: 95.5 µM.
Take `CO/C(N)=C(C#N)/N=C/c1ccsc1`: the GI50 is inactive: > 100 µM.
Then `C=CCc1[nH]c2c(OCc3ccccc3)cc(N(CC=C)C(C)=O)cc2c1C`, with inactive: 12.3 µM.
For `C/C(O)=C/C(=O)c1[nH]c(C(=O)O)cc1C1CCN(Cc2ccccc2)C1=O` (stereo not given), the GI50 is inactive: 26 µM.
Consider `CCOc1ccc2c(c1)[n+]([O-])c(-c1ccc([N+](=O)[O-])cc1)c(N)[n+]2[O-]`, for which the GI50 is inactive: > 100 µM.
In the case of `Cc1ccc(-c2nc(Cc3n[nH]c(-c4ccc(C)cc4)n3)n[nH]2)cc1` it was inactive: > 100 µM.
Turning to `C[N+](C)([O-])CCC=C1c2ccccc2CCc2ccccc21`, the GI50 was inactive: 45.5 µM.
For `O=C(O)CN(CCNC(=O)OCC1c2ccccc2-c2ccccc21)CCNC(=O)OCC1c2ccccc2-c2ccccc21`, the GI50 is inactive: 30.4 µM.
On to `CCC1CNC(=O)CC1CC(=O)OC` (stereo not given), for which the GI50 was inactive: > 100 µM.
In the case of `Cc1cc(C)nc(NS(=O)(=O)c2ccc(Nc3c4ccccc4nc4c(C(=O)N5CCN(CCO)CC5)cccc34)cc2)n1` it was inactive: > 100 µM; in that of `Cn1c(=O)c2nc(/N=N/Nc3nncs3)[nH]c2n(C)c1=O`, inactive: > 100 µM; in that of `COc1ccc(N2C(=O)/C(=C\c3cccc(Oc4ccccc4)c3)S(=O)(=O)C2c2ccccc2)cc1` (stereo not given), inactive: 40 µM.
In the case of `CCS(=O)(=O)CCn1c(=O)c2c(ncn2C)n(C)c1=O` it was inactive: > 100 µM; in that of `CCC1(OC(=O)CN2CCN(CCO)CC2)C(=O)OCc2c1cc1n(c2=O)Cc2cc3ccccc3nc2-1` (stereo not given), active: 0.962 µM; in that of `COc1ccc2c(c1)CC1=C(O2)c2ccc(OC)cc2OC1`, inactive: 63 µM.
Then `CCCCCCCCCCCCCCCC(=O)Nc1ccn(C2CCC(COP(=O)(O)OCC3OC(n4cc(F)c(=O)[nH]c4=O)CC3OC(C)=O)O2)c(=O)n1` (stereo not given), with inactive: 18.5 µM; and `CCOC(=O)c1c(C)cc(=O)n2c1[nH]c1ccccc12`, with inactive: > 100 µM; and `O=[N+]([O-])c1cc(C(F)(F)F)cc2c1SC1=Nc3ccccc3CN12`, with inactive: > 100 µM.
Consider `COc1cc(C2=C(C#N)C(N)OC3=C2COc2ccccc23)cc(OC)c1OC` (stereo not given), for which the GI50 was inactive: 12.6 µM.
As to `COC(=O)NC(Cc1ccccc1)NC(=O)OC(C)(C)C` (stereo not given), the GI50 is inactive: > 100 µM.
Then `CCN(CC)c1nc(=O)c(C(=O)C(C)(C)C)c(C(C)(C)C)o1`, with inactive: > 100 µM.
Turning to `Cc1cc(N(CCC#N)CCC#N)ccc1/C=C(\NC(=O)/C=C/c1ccccc1)C(=O)N=[N+]=[N-]`, the GI50 was inactive: > 100 µM.
Then `COc1cc(C(O)C(=O)c2cnc3cc([N+](=O)[O-])ccc3n2)ccc1O` (stereo not given), with inactive: > 100 µM.
`O=C(Nc1nnc(-c2ccc(Cl)cc2)o1)C(SC(=S)N1CCOCC1)c1ccccc1` (stereo not given): the GI50 was inactive: 13 µM.
For `CC(=O)c1cccc(NC(=O)C(=O)Nn2c(N)nnc2N)c1`, the GI50 was inactive: > 100 µM.
In the case of `C=CCOc1ccc(N)c([N+](=O)[O-])c1`, the GI50 was inactive: > 100 µM.
In the case of `C=CC(C)(C)/C(=C\CO[Si](C(C)C)(C(C)C)C(C)C)C(=O)N(C)c1ccccc1I` it was inactive: 16.4 µM; in that of `O=C(O/C=C\OC1CCCC1(c1ccccc1)c1ccccc1)c1ccccc1` (stereo not given), inactive: 20.1 µM; in that of `OCCCSc1ccccc1SCCCO`, inactive: > 100 µM.
With `CC1(C)COC(c2cccc3c2C(=O)c2cccc(Cl)c2-3)=N1`, the GI50 was inactive: 55.5 µM.
Turning to `O=C(O)C(Cl)(Cl)Cl`, the GI50 was inactive: > 100 µM.
In the case of `Cc1cc(/N=C/c2c(CO)cnc(C)c2O)c(/N=C/c2c(CO)cnc(C)c2O)cc1C` it was inactive: 99.1 µM; in that of `C#CC1(O)CCC2[C@@H]3CCc4cc(Oc5nc(F)nc(-c6c7ccccc7c(SCC)n6CCC)n5)ccc4C3CC[C@@]21C` (stereo not given in full), inactive: > 100 µM; in that of `O=C1C(O)=C(C(CCc2ccccc2)C2=C(O)C(=O)c3ccccc3C2=O)C(=O)c2ccccc21`, inactive: 52.5 µM.
Turning to `Nc1c2c(nc3ccccc13)-c1ccccc1NCCC2`, the GI50 was inactive: 33.3 µM.
In the case of `COC(=N)c1csc(C2OC(CO)C(O)C2O)n1` (stereo not given) it was inactive: > 100 µM; in that of `O=C1CCC2(c3ccccc3)Nc3ccccc3N12` (stereo not given), inactive: > 100 µM; in that of `CC(C)C1=Cc2ccc3c(c2C(=O)C1=O)CCCC3`, inactive: 10 µM.
